Results reported in publication PMC4336329 (PLoS ONE, 2015).
Screen size: about 310,000 compounds; about 14,000 (4.5%) showed an effect of 50% or more. The effect is printed as a negative number. The list shows a part of the results.

Molecular target: human ether-à-go-go-related gene (hERG) potassium channel (human, UniProt Q12809)
Assay: primary screen, population patch clamp on CHO cells stably expressing hERG
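Further: peak tail current of the secondary pulse compared with the same well before compound.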

Chain of human ether-à-go-go-related gene (hERG) potassium channel (Q12809 whole entry, looked up): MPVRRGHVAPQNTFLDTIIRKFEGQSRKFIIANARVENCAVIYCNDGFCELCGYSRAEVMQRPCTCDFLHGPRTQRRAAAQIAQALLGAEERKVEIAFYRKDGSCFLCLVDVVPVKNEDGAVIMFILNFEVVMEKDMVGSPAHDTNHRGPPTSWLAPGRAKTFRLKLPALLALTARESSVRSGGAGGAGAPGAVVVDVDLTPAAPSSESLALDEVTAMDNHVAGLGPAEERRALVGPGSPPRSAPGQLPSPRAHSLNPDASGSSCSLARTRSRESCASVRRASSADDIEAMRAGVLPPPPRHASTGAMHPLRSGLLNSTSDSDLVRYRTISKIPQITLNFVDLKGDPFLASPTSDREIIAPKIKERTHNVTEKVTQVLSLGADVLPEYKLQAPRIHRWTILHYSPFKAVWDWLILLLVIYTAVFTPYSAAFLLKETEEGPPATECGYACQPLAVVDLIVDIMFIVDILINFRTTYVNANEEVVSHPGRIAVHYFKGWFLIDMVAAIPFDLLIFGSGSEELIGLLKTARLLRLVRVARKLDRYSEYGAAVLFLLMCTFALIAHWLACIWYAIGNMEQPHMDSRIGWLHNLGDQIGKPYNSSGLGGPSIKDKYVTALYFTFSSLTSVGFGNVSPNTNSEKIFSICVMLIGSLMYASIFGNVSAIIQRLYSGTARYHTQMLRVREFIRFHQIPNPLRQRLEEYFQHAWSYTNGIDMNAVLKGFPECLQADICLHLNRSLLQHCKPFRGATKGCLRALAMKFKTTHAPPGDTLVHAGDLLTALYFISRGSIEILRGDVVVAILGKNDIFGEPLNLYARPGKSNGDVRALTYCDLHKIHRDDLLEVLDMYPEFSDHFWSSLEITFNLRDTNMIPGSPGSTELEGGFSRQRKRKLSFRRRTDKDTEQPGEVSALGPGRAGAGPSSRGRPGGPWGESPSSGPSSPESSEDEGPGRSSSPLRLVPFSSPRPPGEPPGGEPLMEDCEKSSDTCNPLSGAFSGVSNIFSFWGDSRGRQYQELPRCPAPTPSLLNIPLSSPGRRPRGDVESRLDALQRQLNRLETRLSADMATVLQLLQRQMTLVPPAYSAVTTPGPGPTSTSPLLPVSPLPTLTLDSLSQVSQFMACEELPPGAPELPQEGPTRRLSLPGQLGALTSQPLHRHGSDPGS

| SMILES | hERG current change (%, negative = inhibition) at 10uM [%] |
| --- | --- |
| Cc1cccc(-c2nc(NCCCN(C)C)c3ccccc3n2)c1.Cl | -30 |
| Cc1ccc(CNC(=O)C2CCC(=O)N(CCc3ccc(Cl)cc3)C2)cc1 (centres unmarked) | -40.2 |
| CCc1cc(CNC(=O)c2cccc(OC3CCN(S(C)(=O)=O)CC3)c2)on1 | -70.3 |
| CCOC(=O)C1(C)/C(=N/Nc2cccc(Cl)c2)C(=O)C(=O)N1c1ccccc1 (centres unmarked) | 6.3 |
| OCCN(CCO)c1ncnc2c1sc1nc(N3CCOCC3)c3c(c12)CCCC3 | -13.3 |
| NC(=O)c1ccc[n+](Cc2cccc3ccccc23)c1.[Br-] | 13 |
| CC1CCc2cc(F)ccc2N1C(=O)c1ccncc1 (centres unmarked) | 7.7 |
| Cc1sc(NC(=O)c2ccc(F)cc2)c(CN2CCCCCC2)c1C | -22.9 |
| O=C(C1CC(c2ccccc2O)=NO1)N1CCc2ccccc2C1 (centres unmarked) | 3.29 |
| CCc1nnc(NS(=O)(=O)c2ccc(NC(=O)c3cc(Cl)ccc3OC)cc2)s1 | 24.8 |
| CC(C)NC(=S)NNc1nc2ccccc2s1 | 9.59 |
| O=C(CSc1ncn[nH]1)Nc1ccc(Cl)c(Cl)c1 | 0.453 |
| Clc1ccc(Oc2ncnc3oc(-c4ccccc4)cc23)cc1 | 4.39 |
| CCOc1ccc(NS(=O)(=O)c2ccc(C(=O)NCC(c3ccc(OC)cc3)N3CCOCC3)cc2)cc1 (centres unmarked) | -12.6 |
| O=C(O)CN1C(=O)c2ccc(Oc3ccc([N+](=O)[O-])cc3)cc2C1=O | 23.2 |
| COc1ccc(NC(=O)Cn2nnc(C(=O)Nc3ccccc3C)c2N)cc1 | 8.71 |
| CCC(CO)NC(=O)c1ccc(-c2nn(C)c(=O)c3ccccc23)cc1 (centres unmarked) | -0.0744 |
| CN(C)c1ccc(CNC2CC(C)(C)NC(C)(C)C2)cc1 | 15.5 |
| CCC(=O)Nc1ccc(NC(=O)c2ccccn2)cn1 | 8.72 |
| CCOc1ccccc1N1CCN(Cc2cccc(OC)c2OC)CC1 | -17 |
| CC(C)(C)CC(C)(C)c1ccc(O)c(CN2CCN(CCC#N)CC2)c1 | 13.9 |
| O=C(CN1C(=O)C2CC=CCC2C1=O)Nc1nnc(SCc2ccc(F)cc2)s1 (centres unmarked) | -11.4 |
| CCOC(=O)c1c(N)sc(C(=O)N(CC)CC)c1C | 6.82 |

| SMILES | hERG current change (%, negative = inhibition) at 10uM [%] |
| --- | --- |
| Cc1cc(Cl)cc2c1NC(=O)[C@]21[C@@H]2C(=O)N(Cc3ccccc3)C(=O)[C@@H]2[C@@H]2CCCN21 | -17.9 |
| O=C(NCCOc1ccccc1F)c1ccccc1SCc1ccc(F)cc1 | -5.72 |
| CCc1c(C)nc(SCC(=O)c2ccc(C)c(C)c2)[nH]c1=O | 5.78 |
| Cc1cc(C(=O)N/N=C/C=C/c2ccc3c(c2)OCO3)n[nH]1 | -14.6 |
| O=C(Nn1cnnc1)c1ccc(F)cc1 | 10.8 |
| COc1ccc(/C=C2\SC(=S)N(C(C)C(=O)NC3C=CS(=O)(=O)C3)C2=O)cc1 (centres unmarked) | -5.61 |
| C=C(C)C(=O)O[C@H]1C/C(C)=C\C(=O)/C=C(\C)[C@H](O)[C@@H]2OC(=O)C(=C)[C@@H]21 | -1.92 |
| CCCC1(C(=O)OCC)NC(c2ccc(OC)cc2OC)C2C(=O)N(c3ccc4c(c3)OCCO4)C(=O)C21 (centres unmarked) | -0.743 |
| CCN1CCc2nc(N)sc2C1 | -4.7 |
| O=S(=O)(c1ccc2nnn(OCc3ccccc3)c2c1)N1CCOCC1 | -31.1 |
| O=c1oc2ccccc2c(Nc2cccc3ccccc23)c1[N+](=O)[O-] | 5.56 |
| COCCN(C(=O)CCC(=O)Nc1cc(C)on1)C(C(=O)NC1CCCC1)c1ccccc1F (centres unmarked) | 26.9 |
| Cn1c(NNC(=O)c2ccc(C(C)(C)C)cc2)cc(=O)n(C)c1=O | 17.3 |
| COc1cc(C=NCC2OCCc3ccccc32)cc(OC)c1 (centres unmarked) | 8.95 |
| CCc1nn(CC(=O)Nc2ccc(Br)c(C)c2)c(=N)s1.Cl | -45.7 |
| O=C(C1CCN(C2CC(=O)N(c3cccc(Cl)c3)C2=O)CC1)N1CCCCCC1 (centres unmarked) | 7.44 |
| COc1ccc(Cl)cc1Nc1cc(C)nc2ccccc12 | -73 |
| COc1ccc(NC(=O)Cn2nnc(-c3ccccc3NC(=O)c3ccco3)n2)cc1 | -12.8 |
| COC(=O)COc1ccc2cccc(-n3cnnn3)c2c1 | 12.5 |
| CCOCC(=O)Nc1ccc(Br)c(C)c1 | 4.88 |
| COc1ccc(CNC(=O)CS(=O)(=O)Cc2nc(-c3ccc(OC)cc3)oc2C)cc1 | -0.761 |
| NC(=O)N/N=C\c1cc(Br)ccc1O | 1.55 |
| O=S(=O)(Nc1nc2ccccc2s1)c1ccc(Cl)s1 | 2.76 |

| SMILES | hERG current change (%, negative = inhibition) at 10uM [%] |
| --- | --- |
| CCOC(=O)/C(=C/Nc1ccc(F)cc1)[N+](=O)[O-] | 14.5 |
| COc1ccccc1NC(C)C(=O)N/N=C/c1ccccc1OCc1cccc(Br)c1 (centres unmarked) | 3.13 |
| COC(=O)c1c(NC(=S)NC(=O)c2ccco2)sc2c1CCCC2 | 7.8 |
| COc1cc(C2C(C#N)=C(C)NC3=C2C(=O)CC(C)(C)C3)ccc1OCCO (centres unmarked) | 13.9 |
| O=C(c1cc2ccccc2cc1O)N1CCN(c2ccc([N+](=O)[O-])cc2)CC1 | -40.3 |
| CN(C)C(=O)COC(=O)c1cccc(CN2C(=O)c3ccccc3C2=O)c1 | 9.1 |
| CCCCOc1ccc(S(=O)(=O)NC(=O)NCc2ccc(OCCC)cc2)cc1 | 1.08 |
| CCCCn1c(=O)[nH]c(=O)c2c(C(=O)OCC)cc(-c3ccc(OC(F)F)cc3)nc21 | 14.5 |
| COc1ccc(NC(=O)C2CCCN2C(=O)Nc2cccc(F)c2)cc1 (centres unmarked) | -3.77 |
| CSc1nc(=S)cc(C)[nH]1 | 3.88 |
| O=C(NCc1ccccn1)c1ccc(NS(=O)(=O)c2ccccc2)cc1 | 0.108 |
| COc1ccccc1C(=O)NC(CCSC)C(=O)N1CCN(C(C)=O)CC1 (centres unmarked) | -0.345 |
| Cc1cc(OC(C)C(=O)NCc2ccccn2)c2c(C)cc(=O)oc2c1 (centres unmarked) | -9.69 |
| COc1ccccc1C(=O)Nc1ccnn1C1CCN(C/C=C/c2ccccc2)CC1 | -78.9 |
| COc1ccccc1NS(=O)(=O)c1cc(NC(=O)CCNC(C)=O)ccc1N1CCCCC1 | -13.8 |
| COC(=O)c1sc2cnccc2c1N | 13.7 |
| CC(C)N(C(=O)CN1CCN(S(=O)(=O)c2ccc(Br)s2)CC1)C(C)C | -17.4 |
| O=C(OC(C(=O)c1c[nH]c2ccccc12)c1ccccc1)c1cnccn1 (centres unmarked) | 1.77 |
| O=C(NCc1ccccc1C(F)(F)F)C1CCC(=O)N(CCCc2ccccc2)C1 (centres unmarked) | -13.8 |
| COC(=O)c1cc(Br)c(=O)n(-c2ccccn2)c1 | 12.5 |
| Cc1ccc(NC(=O)CSc2nc3ccccc3c(=O)n2CCCN2CCCCC2)cc1Cl | -73.7 |
| CCOc1ccc(NC(=O)CN(C)C(=O)c2cc3c(s2)CCCCC3)cc1OCC | -3.41 |
| CCN1CCN(c2ccc(NC(=O)c3cc(S(=O)(=O)N4CCCC4)ccc3Cl)cc2)CC1 | -27.7 |

| SMILES | hERG current change (%, negative = inhibition) at 10uM [%] |
| --- | --- |
| COc1ccc(CNc2ccc(C)c(C)c2)cc1 | 11.8 |
| O=C(NCCN1CCN(C(=O)c2cccs2)CC1)c1cccs1 | -35.8 |
| CCCn1nc(NC(=O)C2CCCO2)c2cc3cc(C)ccc3nc21 (centres unmarked) | -30.6 |
| COc1ccc([C@H]2C=C3CN(C(=O)OC(C)(C)C)S(=O)(=O)[C@H]3C[C@H]2OC(=O)c2ccc(C(F)(F)F)cc2)cc1 | 12.7 |
| O=C(CCCCCN1C(=O)c2cccc3cccc(c23)C1=O)N1CCOCC1 | -21.8 |
| O=C(CSCc1ccc(Cl)cc1)N1CCOCC1 | -4.25 |
| CC(=O)Nc1nonc1NC(=O)c1ccc(F)cc1 | 21.6 |
| Cc1ccc(NC(=O)CCNS(=O)(=O)c2cccc3nsnc23)cc1 | -3.66 |
| COC(=O)c1ccc2[nH]c3c(c2c1)CC(C)CC3 (centres unmarked) | 17.8 |
| O=C(CSc1nc(-c2ccccc2)cc(C(F)(F)F)n1)NCc1cccs1 | 14.4 |
| COc1cccc(C(=O)N(Cc2nc(-c3ccc(C)cc3)no2)C(C)C)c1 | 6.99 |
| O=C(C(=O)N1CCc2ccccc2C1)c1c[nH]c2ccccc12 | 8.82 |
| CC1(C)C=Cc2c(c3ccccc3[nH]c2=O)O1 | -6.75 |
| CCOC(=O)CSC(CC)C(=O)Nc1nnc(CC)s1 (centres unmarked) | -2.06 |
| NNC(=O)C1CC(O)CN1S(=O)(=O)c1ccc2ccccc2c1 (centres unmarked) | 8.01 |
| O=C(CSc1n[nH]c(=O)n1-c1cccnc1)Nc1ccccc1 | 19.4 |
| Cl.OC(COc1c(F)cc(Br)cc1F)CN1CCN(c2ccc(F)cc2)CC1 (centres unmarked) | -25.7 |
| S=C(NCc1ccc(Cl)cc1)Nc1ccncc1 | -13.6 |
| CCOc1ccccc1C(=O)N(CN1CCCC1=O)c1cccc(Cl)c1 | -3.65 |
| Cc1ccc(S(=O)(=O)Nc2cc(Cl)c(O)cc2C)cc1 | -13.9 |
